From US20220064291A1, “METHODS OF USING BUTYROPHILIN ANTIBODIES FOR TREATING HIV INFECTION” (Merck Sharp & Dohme Corp., priority 2018, published 2022)

Experiments:
BTN3A2 = target: T1, BTN3A2 (Homo sapiens, UniProt P78410); test: BTN isoform binding of yeast display antibodies (Octet isoform binding profile, binding affinity); settings: Table 4; Yes/No; hIgG1-297A isotype
T1 construct: Fc (Fc-chimera); purchased R&D systems; host or cells: HEK293
Protocol: (§1) De novo antibody discovery for butyrophilin isoforms was executed on pre-immune yeast display libraries. The soluble proteins used in the yeast display selections were biotinylated recombinant proteins of HEK293-expressed Fc-chimeras BTN2A2, BTN3A1, BTN3A2, and BTN3A3 from R&D systems. All proteins were analyzed before use by Biacore binding against control antibody anti-BTN Monoclonal Antibody (eBioBT3.1 (20.1, BT3.1), SEC, SDS-PAGE, and endotoxin.
(§2) Each biotinylated BTN isoform was subjected to pre-immune yeast display libraries for selections. The selections started with MACS (Magnetic Bead-based Cell Separation) cell separations for the first two rounds to enrich clones that bind to the targeted BTN isoforms, and applied fluorescence activated cell sorting (FACS) at later rounds to isolate clones that were with high affinity and isoform specificity. Due to the high sequence homology among all BTN isoforms, isoform-specific selection pressures were achieved by introducing ten-fold molar ratio of the non-biotinylated BTN isoforms to the biotinylated and selection-targeted BTN isoforms in the later rounds of the selections.
(§3) The isolated clones were then sequenced to identify the unique antibodies and screened for isoform binding profiles by Octet. To ensure the isolated antibodies have broad-epitopic coverage, all the antibodies were subjected to binning against the benchmark antibodies: BTN20.1 (Biolegend, agonist) and BTN103.2 (Creative Biolabs, antagonist). Purified antibodies were submitted for functional assay screening, as described below.
(§4) Given the sequence homology between BTN3A isoforms (>90%), this outcome is expected. Within all 105 antibodies from the BTN3A1 campaign and 125 antibodies from the BTN3A2 campaign, each antibody was characterized into one of the bins: Biolegend-bin, Creative-Biolabs-bin, Empty Set, or Overlapping.
(§5) Using the protocols described in detail in Example 2B and Example 3A, anti-BTN3A antibodies were screened for a functional role in T cell activation and reactivation of latent HIV. Antibody screens were conducted using HIV latent CD4+ T cells (prepared as described in Example 1A). T cell activation was quantified by production of IFNγ, and reactivation of latent HIV was quantified by luciferase assay. […] Detailed information on binding profile with binding affinity (KD) (Table 4) and antibody isotype and sequence (Table 5) are provided for two representative antibodies from each of the three functional categories observed.

BTN3A3 = target: T2, BTN3A3 (Homo sapiens, UniProt O00478); test: as above; settings: Table 4; Yes/No; hIgG1-297A isotype
T2 construct: Fc (Fc-chimera); purchased R&D systems; host or cells: HEK293
Protocol: as §1, §2, §3, §4, §5

BTN3A1 = target: T3, BTN3A1 (Homo sapiens, UniProt O00481); test: as above; settings: Table 4; Yes/No; hIgG1-297A isotype
T3 construct: Fc (Fc-chimera); purchased R&D systems; host or cells: HEK293
Protocol: as §1, §2, §3, §4, §5

[1] = test system: latent HIV in HIV latent primary CD4+ T cells; test: Latent virus reactivation by plate-coated anti-BTN3A antibody plus anti-CD3, Nano-Glo Luciferase Assay; format: cell-based, HIV-1; settings: with anti-CD3, Yes/No
Protocol: Latent HIV-1 infected primary CD4+ T cells were generated following a protocol licensed from the laboratory of Jonathan Karn (Case Western Reserve University, Cleveland, Ohio). Briefly, naive CD4^+ T cells isolated from 2 healthy human donors were propagated for 6 days in growth medium supplemented with Dynabeads Human T-Activator CD3/CD28 (25 μl/10^6 cells) and Th17 polarizing cytokines: TGF-β1 (5 ng/ml), IL-4 (10 ng/ml), IFNγ (10 ng/ml), IL-1β (10 ng/ml), IL-6 (30 ng/ml), IL-23 (50 ng/ml), IL-8 (15 ng/ml), IL-10 (10 ng/ml). […]. […]
To assess if BTN3A modulation has impact on HIV latency reversal, sterile 96-well flat bottom tissue culture plates (Corning) were coated with various concentrations of anti-CD3 and anti-BTN3 20.1 antibodies (10 μg/ml, 3 μg/ml, 1 μg/ml, and 0.3 μg/ml) in PBS for 16h in a 4° C. refrigerator. […] At 24 h post treatment latent virus reactivation was measured using a Nano-Glo® Luciferase Assay (Promega) (FIG. 5).
(§6) Using the protocols described in detail in Example 2B and Example 3A, anti-BTN3A antibodies were screened for a functional role in T cell activation and reactivation of latent HIV. […] T cell activation was quantified by production of IFNγ, and reactivation of latent HIV was quantified by luciferase assay. […]

[2] = test system: HIV latent primary CD4+ T cells; test: T cell activation by plate-coated anti-BTN3A antibody plus anti-CD3, IFNγ expression (V-PLEX); format: cell-based, human; settings: production of IFNγ, with anti-CD3, Yes/No
Protocol: Latent HIV-1 infected primary CD4+ T cells were generated following a protocol licensed from the laboratory of Jonathan Karn (Case Western Reserve University, Cleveland, Ohio). Briefly, naive CD4^+ T cells isolated from 2 healthy human donors were propagated for 6 days in growth medium supplemented with Dynabeads Human T-Activator CD3/CD28 (25 μl/10^6 cells) and Th17 polarizing cytokines: TGF-β1 (5 ng/ml), IL-4 (10 ng/ml), IFNγ (10 ng/ml), IL-1β (10 ng/ml), IL-6 (30 ng/ml), IL-23 (50 ng/ml), IL-8 (15 ng/ml), IL-10 (10 ng/ml). […]. Reactivation of HIV-1 proviruses from latently infected cells was performed by treatment with Dynabeads Human T-Activator CD3/CD28 (25 μl/10^6 cells) or PMA/Ionomycin.
We next addressed if treatment with anti-BTN3A antibodies reverses BTN3A-mediated blockade in T cell activation. […] At 72 h following treatment T cell activation was measured based on IFNγ expression using a V-PLEX proinflammatory panel 1 human assay (Meso Scale Discovery, Rockville, Md.) (FIG. 4).
as §6

T1 sequence (P78410 with tags, fused parts or gaps limits assumed): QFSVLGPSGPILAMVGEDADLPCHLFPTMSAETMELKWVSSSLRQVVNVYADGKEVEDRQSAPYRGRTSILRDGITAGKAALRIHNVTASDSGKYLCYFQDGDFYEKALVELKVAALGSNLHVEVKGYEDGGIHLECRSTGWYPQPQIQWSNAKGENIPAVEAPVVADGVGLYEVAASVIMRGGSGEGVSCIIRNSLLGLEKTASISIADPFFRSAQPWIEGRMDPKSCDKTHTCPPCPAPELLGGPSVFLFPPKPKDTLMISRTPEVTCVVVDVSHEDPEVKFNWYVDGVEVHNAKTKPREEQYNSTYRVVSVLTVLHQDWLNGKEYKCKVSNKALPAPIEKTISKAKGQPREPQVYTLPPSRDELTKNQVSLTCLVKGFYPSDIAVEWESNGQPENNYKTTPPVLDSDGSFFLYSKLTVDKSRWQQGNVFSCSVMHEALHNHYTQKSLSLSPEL
T2 sequence (O00478 with tags, fused parts or gaps limits assumed): as the sequence (P78410 with tags, fused parts or gaps limits assumed) above, with K37R, N120D, V123I, Q149K, N152D, A153T, E174A, G184S, E187G counted along it
T3 sequence (O00481 with tags, fused parts or gaps limits assumed): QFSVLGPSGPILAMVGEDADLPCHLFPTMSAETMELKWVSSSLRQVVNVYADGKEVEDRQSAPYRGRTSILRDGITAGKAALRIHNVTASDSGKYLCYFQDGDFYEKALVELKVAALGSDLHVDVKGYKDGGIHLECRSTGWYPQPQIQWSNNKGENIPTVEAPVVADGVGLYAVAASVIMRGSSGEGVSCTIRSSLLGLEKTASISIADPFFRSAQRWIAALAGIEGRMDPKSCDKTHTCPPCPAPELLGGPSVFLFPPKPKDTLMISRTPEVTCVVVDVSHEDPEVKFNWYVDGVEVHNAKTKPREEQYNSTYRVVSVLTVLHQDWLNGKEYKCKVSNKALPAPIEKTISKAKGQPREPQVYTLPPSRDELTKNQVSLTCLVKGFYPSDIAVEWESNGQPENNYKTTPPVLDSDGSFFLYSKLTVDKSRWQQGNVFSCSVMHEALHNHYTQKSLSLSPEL

Row | Molecule | BTN3A2 Binding (BTN3A2) | BTN3A3 Binding (BTN3A3) | BTN3A1 Binding (BTN3A1) | Antibody function HIV reactivation [1] | Antibody function T cell activation [2]
1 | 1F (antibody, V domains shown) VH: QVQLQESGPGLVKPSQTLSLTCTVSGGSISSGGYYWSWIRQHPGKGLEWIGSIYYSGSTYYNPSLKSRVTISVDTSKNQFSLKLSSVTAADTAVYYCARLHSSQSSSTYWGQGTLVTVSS VL: [left out - about 100 residues]YTFGGGTKVEIK | No | No | Yes | No | Yes
2 | 2L (antibody, V domains shown) VH: [left out - about 100 residues]PPEVVGYGEDWFDPWGQGTLVTVSS VL: DIQMTQSPSSVSASVGDRVTITCRASQGISSWLAWYQQKPGKAPKLLIYAASNLQSGVPSRFSGSGSGTDFTLTISSLQPEDFATYYCQQGNDLPITFGGGTKVEIK | No | No | Yes | Yes | No
